Publication PMC4336329 (PLoS ONE, 2015)
The campaign covered roughly 310,000 compounds. About 14,000 (4.5%) showed an effect of 50% or more. The effect is printed as a negative number. The list shows a part of the results.

Target: human ether-à-go-go-related gene (hERG) potassium channel (human, UniProt Q12809)
Assay: primary screen, population patch clamp on CHO cells stably expressing hERG
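Further: peak tail current of the secondary pulse compared with the same well before compound.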

Chain of human ether-à-go-go-related gene (hERG) potassium channel (Q12809 whole entry, looked up): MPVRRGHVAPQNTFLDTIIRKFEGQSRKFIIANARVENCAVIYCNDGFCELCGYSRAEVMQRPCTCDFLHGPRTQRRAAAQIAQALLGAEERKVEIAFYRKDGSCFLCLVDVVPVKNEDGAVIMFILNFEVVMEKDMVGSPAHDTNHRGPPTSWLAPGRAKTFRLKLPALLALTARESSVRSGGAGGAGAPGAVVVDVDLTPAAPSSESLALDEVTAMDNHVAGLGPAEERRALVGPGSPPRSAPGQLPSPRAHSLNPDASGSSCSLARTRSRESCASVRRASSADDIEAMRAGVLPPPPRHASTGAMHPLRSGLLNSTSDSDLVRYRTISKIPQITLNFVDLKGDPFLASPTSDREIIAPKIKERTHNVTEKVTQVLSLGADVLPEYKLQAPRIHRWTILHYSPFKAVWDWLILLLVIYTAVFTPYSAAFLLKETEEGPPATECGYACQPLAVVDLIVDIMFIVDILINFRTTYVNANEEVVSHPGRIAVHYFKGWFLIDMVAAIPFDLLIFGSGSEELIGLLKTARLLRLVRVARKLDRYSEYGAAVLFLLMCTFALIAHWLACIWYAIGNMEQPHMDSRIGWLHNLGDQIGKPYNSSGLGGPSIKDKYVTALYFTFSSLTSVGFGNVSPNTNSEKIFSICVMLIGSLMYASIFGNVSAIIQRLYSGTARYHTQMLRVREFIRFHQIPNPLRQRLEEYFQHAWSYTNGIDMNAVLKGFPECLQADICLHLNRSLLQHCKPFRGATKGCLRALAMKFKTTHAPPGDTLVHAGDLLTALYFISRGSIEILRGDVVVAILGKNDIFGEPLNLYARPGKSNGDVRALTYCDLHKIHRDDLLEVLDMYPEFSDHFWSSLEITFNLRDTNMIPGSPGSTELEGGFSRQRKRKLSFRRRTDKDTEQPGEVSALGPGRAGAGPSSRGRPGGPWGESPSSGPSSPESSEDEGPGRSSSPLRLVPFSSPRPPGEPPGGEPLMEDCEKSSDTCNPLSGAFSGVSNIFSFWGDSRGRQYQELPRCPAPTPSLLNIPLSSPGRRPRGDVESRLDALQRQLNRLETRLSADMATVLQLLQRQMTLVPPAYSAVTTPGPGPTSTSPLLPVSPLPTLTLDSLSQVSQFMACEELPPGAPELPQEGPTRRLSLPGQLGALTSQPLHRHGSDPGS

SMILES	hERG current change (%, negative = inhibition) at 10uM
Cc1ccc(S(=O)(=O)Nc2ccncc2)c(C)c1N(C)S(=O)(=O)c1ccc(Cl)cc1	-13.3%
O=C(c1noc2c1CCCC2)N1CCC(CO)(Cc2ccccc2Cl)CC1	-22.9%
Cc1cc(C(=O)CCl)c(C)n1CCc1ccccc1	-17.5%
O=C(Nc1ccc(N2CCOCC2)cc1)Nc1ccc(Cl)c(Cl)c1	15.4%
Cc1ccc(C(C)C)c(OCCN(C)C)c1.O=C(O)C(=O)O	-5.47%
O=c1cccc2n1Cc1cc3ccccc3nc1-2	11.1%
CC12CCC(=O)N1C(C(=O)Nc1cccc(S(=O)(=O)N3CCCCC3)c1)CS2 (stereo not drawn)	-43.9%
CC(C)(C)c1ccc(C(=O)Nn2c(CCC(=O)O)ccc2-c2cccs2)cc1	-4.16%
CS(=O)(=O)N1CCCC(C(=O)Nc2ccc(F)cc2F)C1 (stereo not drawn)	17.1%
O=C(CCc1nnc(COc2ccccc2)o1)NCc1ccc(Cl)s1	1.7%
Cc1ccccc1NC(=O)C(C)n1c2ccccc2c2nc(=O)cc(C)n21 (stereo not drawn)	-15.4%
CCCCCC(C(=O)O)C(C)CC(=O)NC1CCCCC1 (stereo not drawn)	4.26%
CC(=O)c1ccc(NS(=O)(=O)c2ccc(N)cc2)cc1	9.67%
Cc1cccc2c1N(C(=O)c1ccco1)C(C)(C)c1ssc(=S)c1-2	11.8%
CC(C)(C)NC(=O)C(c1ccc(O)cc1)N(C(=O)CCC(=O)Nc1nccs1)c1ccccc1F (stereo not drawn)	23.9%
COc1ccc(-c2nnc(OCc3ccccc3)c3ccccc23)cc1	1.82%
COc1ccc2nc(NC(=O)CSc3nnc4n3C(C)(C)Cc3ccccc3-4)sc2c1	0.248%
COc1ccc(NN=Nc2nc3c([nH]2)c(=O)n(C)c(=O)n3C)cc1	-0.185%
CCOC(=O)c1nc(C)sc1-c1ccnn1S(=O)(=O)c1ccc(Cl)cc1Cl	-13.6%
CCO[C@@H]1OC(C(=O)NC2CC2)=C[C@H](c2c[nH]c3ccccc23)[C@H]1CCCO	-1.3%
O=C(N/N=C/c1ccc(OC2CSC2)cc1)c1ccc(CN2CCOCC2)cc1	-4.19%
COc1ccc(OC)c(/C=C/C(=O)Oc2ccc(C(C)=O)cc2)c1	13.8%

SMILES	hERG current change (%, negative = inhibition) at 10uM
CC(C)/C=N/NC(=O)c1cc(Br)ccc1O	-12.9%
NC(=O)CC(NC(=O)Cc1ccc(Cl)cc1)c1ccc(NCc2ccccc2)c([N+](=O)[O-])c1 (stereo not drawn)	1.16%
O=C(COC(=O)c1ccc(S(=O)(=O)N2CCCCCC2)cc1)NCc1ccc(Cl)cc1	-2.25%
O=[N+]([O-])c1cc([N+](=O)[O-])c(N2CCCCCC2)cc1NCCO	-13.4%
Cc1ccc(/C=C/S(=O)(=O)NCC(=O)OCC(=O)NCc2ccccc2)cc1	5.21%
CN1CCN(C(=O)c2cnn(-c3ccccc3)c2NC(=O)c2ccccc2Cl)CC1	7.13%
COC(=O)C1=CNC=C(C(=O)OC)C1c1cccc2ccccc12	-18.2%
O=C1c2ccccc2C(=O)N1C/C=C/c1ccccc1	13.2%
Cc1cccc(C(=O)Nc2ccc(CC(=O)O)cc2)c1	1.61%
COC(=O)c1ccc(NC(=O)c2ccc3nc(C)sc3c2)cc1	15.8%
CSC(=NC#N)N1CCN(C(=NC#N)SC)CC1	-1.88%
COc1ccc(NC(=S)Nc2cc(C(F)(F)F)ccc2F)cc1	-13.7%
O=C(Cc1ccc(F)cc1)NCCc1ccccc1	-1.11%
COc1ccc2c(c1)CC/C(=C/c1ccco1)C2=O	10.7%
CCCC[C@@H]1CNC(=O)C(=O)N1CCCc1cc(OC)c(OC)c(OC)c1	21.5%
c1ccc(-c2cnnc(-c3ccccn3)n2)cc1	-0.697%
COc1ccc(NC(=O)CCN2CCC(C)CC2)cc1	3.31%
COCC(=O)N(Cc1cc2cc(C)ccc2[nH]c1=O)c1cccc(C)c1C	12.4%
Cc1ccc(CCN2CCN=C2N(C)C)cc1	-9.28%
COCC(C)NC(=S)NCCc1ccc(Cl)cc1Cl (stereo not drawn)	-5.65%
Cc1nnc(SCC(=O)NC2CCCC2)n1CCc1ccccc1	-34.1%
Cc1ccc(S(=O)(=O)N2CCN(S(=O)(=O)c3ccc4c(c3)OCCO4)CC2)cc1	8.43%

SMILES	hERG current change (%, negative = inhibition) at 10uM
O=Cc1cn(-c2ccccc2)nc1-c1ccc(F)cc1	2.99%
Cc1ccc2oc(=O)n(CCC(=O)Nc3ccc(N4CCOCC4)cc3)c2c1	3.65%
O=C(Nc1ccc(C(F)(F)F)cc1-c1ccccc1)c1ccccc1	4.22%
NNC(=O)C(=O)/C=C1\NC2(CCCC2)Cc2ccccc21	-1.65%
CCc1ccc(Nc2nc(N)nc(CSc3nnnn3-c3ccccc3)n2)cc1	18.8%
COCCNC(=O)CSc1nc(-c2ccc(OC)c(OC)c2)cc(C(F)(F)F)n1	0.324%
Cc1cccc(NC(=O)N2CCC(NC(=O)c3ccco3)CC2)c1	0.0645%
O=S(=O)(Nc1ccc(F)cc1)N1CCOCC1	17.9%
O=C(NCc1cccnc1)C1CCC(CNS(=O)(=O)c2ccc(Cl)cc2)CC1 (stereo not drawn)	-21.9%
CN(CC(=O)Nc1cccc(F)c1)C(=O)c1ccccc1Cc1ccccc1	4.55%
COC(=O)c1ccc(Oc2cc(C)nc(-n3nc(C)cc3C)n2)cc1	-22.4%
Cc1nc2ccccc2n1/C(=N/S(=O)(=O)c1ccc(Br)cc1)c1ccccc1	15.9%
CCOC(=O)N1CCN(c2c(NCCc3ccc(C)cc3)c(=O)c2=O)CC1	2.15%
O=C(Nc1ccccc1)N1N=C(c2cccs2)CC1c1cccs1 (stereo not drawn)	-47.4%
Cc1oc(-c2cccc(Cl)c2)nc1CN1CCC(C(=O)NCCCN2CC(C)CC(C)C2)CC1 (stereo not drawn)	-21.4%
Cc1ccccc1C(=O)NNC(=O)CSc1nnc(-c2ccncc2)n1-c1ccccc1	0.612%
Cc1ccc(NC(=O)Cn2nnc(-c3ccccc3-n3cnnn3)n2)c(C)c1	-4.12%
O=C(CCC(=O)N(CC(=O)NC1CCCC1)Cc1ccc(F)cc1)Nc1nccs1	-13.6%
CC1CCN(CCCn2c(=S)[nH]c3c(sc4ccc([N+](=O)[O-])cc43)c2=O)CC1.Cl	7.17%
CCCCN(C)CCNC(=O)CN1C(=O)CSc2ccc(S(=O)(=O)N3CCCCC3)cc21	-50.6%
N#C/C(=C\c1ccncc1)C(=O)Nc1ccc(C(=O)O)cc1	10.6%
COc1ccc(NC(=O)COc2cccc(-n3cnnn3)c2)cc1	-54.3%

SMILES	hERG current change (%, negative = inhibition) at 10uM
COc1cccc(C(=O)O/N=C(\C)c2cnccn2)c1	-4.55%
C=CCSc1nc(C)c(CC(=C)C)c(=O)[nH]1	19.4%
COCCn1c(SCC(=O)Nc2ccc(OC)cc2)nnc1-c1ccoc1C	-3.58%
COc1ccc(-c2cccc(NS(=O)(=O)c3ccc([N+](=O)[O-])cc3)c2)nn1	-15.2%
CCC/C(O)=C1\C(=O)CCCC1=NCCc1c(C)[nH]c2ccccc12	-17.7%
Cc1ccc(C2CC(=O)c3cnc(N4CCc5ccccc5C4)nc3C2)cc1 (stereo not drawn)	2.58%
COCn1cnc(-c2ccccc2)c1-c1ccccc1	-3.24%
Cc1ccc(C)c(S(=O)(=O)N2CCCC2CNC(=O)C(=O)NCCc2ccco2)c1 (stereo not drawn)	-21.2%
CCCC(C(=O)NCc1ccc(OC)cc1)N(Cc1ccco1)C(=O)c1snc(C(N)=O)c1N (stereo not drawn)	-41.1%
COC(=O)c1ccc(N2C(=O)CC(N(C)CCc3ccc(OC)c(OC)c3)C2=O)cc1 (stereo not drawn)	11%
Cc1ccccc1N=Cc1cccc(O)c1O	22%
COc1ccc2c(c1OC)C(=O)O[C@@H]2[C@H]1c2cc3c(cc2CCN1C)OCO3.Cl	-39%
CC(C)c1ccccc1NC(=O)COC(=O)CNC(=O)c1ccc(Br)cc1	-15.8%
CCCn1c(N)c(N(CCOC)C(=O)c2ccc(N3CCCC3=O)cc2)c(=O)[nH]c1=O	30.6%
CCNC(=S)NCCC1=c2ccccc2=N/C1=C\c1c(O)n(C)c(=O)n(C)c1=O	26.5%
C=CCNC(=O)C1CCCN(S(C)(=O)=O)C1 (stereo not drawn)	13.7%
CCCCCCn1c(CN2CCCCC2C)nc2c1c(=O)n(C)c(=O)n2C (stereo not drawn)	-60.5%
CCOCCn1c(N2CCN(c3ccc(OC)cc3)CC2)nc2c1c(=O)[nH]c(=O)n2C	-30.3%
NC(=O)CN1C(=O)C(=O)N(Cc2ccccc2Cl)C1=O	8.45%
CCSc1nc2ccccc2n1C(=O)c1ccc(S(=O)(=O)N2CCCCCC2)cc1	-13.4%
COc1ccc2oc(C(=O)OCC(=O)Nc3cccc(S(=O)(=O)N4CCOCC4)c3)c(C)c2c1	-46.9%
